Source: ChEMBL document CHEMBL4888484, “Replenishing the malaria drug discovery pipeline: Screening and hit evaluation of the MMV Hit Generation Library 1 (HGL1) against asexual blood stage Plasmodium falciparum ,using a nano luciferase reporter read-out” (2022)
About 540 (0.36%) of roughly 150,000 compounds showed an effect of 50% or more. The list shows a part of the results.

These compounds were tested on Plasmodium falciparum (assay: Primary screen in NF54 nanoGlo assay, in single point, at 2uM, 72h; a lower Z score goes with more inhibition). Conditions: timepoint 72 hour.
Format: functional, Erythrocyte
With `N#Cc1ccnc(NCC2(O)CCCC(C(F)(F)F)C2)c1` (stereo not given) the “% Inhibition” value was -5% and the Z score was 0.75. With `CCn1ccc2ccn(CCNC(=O)c3cc4cccc(OC)c4o3)c(=O)c21` the “% Inhibition” value was 0% and the Z score was -0.06. `CC1(C)C(NC(=O)NCCOCC2CC2)C2CCOC21` (stereo not given) was tested, and the “% Inhibition” value was -15% and the Z score was 2.78. With `O=S(=O)(Cc1c(Cl)cccc1Cl)Nc1cccnn1` the “% Inhibition” value was 1% and the Z score was -0.14. For `CC(C)NC(=O)Cc1cccc(N(Cc2ccc(F)cc2)C(=O)Cc2cccs2)c1`, the “% Inhibition” value was -5% and the Z score was 0.89. In the case of `CN(C)C(=O)C1CCN([C@H]2CCc3ccccc3NC2=O)CC1`, the “% Inhibition” value is reported as -4% and the Z score is reported as 0.7. In the case of `O=C(NCCN1CCOCC1)[C@H]1CCCN(c2ncccc2-c2noc(C3CCC3)n2)C1`, the “% Inhibition” value is reported as -12% and the Z score is reported as 1.8. In the case of `Cc1c(C(=O)O)sc2ncnc(N3CCCCCCC3)c12`, the “% Inhibition” value is reported as 8% and the Z score is reported as -1.49. For `O=C(NC[C@@]12CNC[C@]1(C(F)(F)F)C2)c1cc2c(o1)CCCC2`, the “% Inhibition” value was -2% and the Z score was 0.35. `Cc1cccc(CN2CCC(CNC(=O)c3cc4c(=O)n(C)c(=O)n(C)c4s3)CC2)c1` was tested, and the “% Inhibition” value was 8% and the Z score was -1.31. `COCc1cc(CNc2nc3c(c(=O)[nH]2)Cc2ccccc2OC3)n[nH]1` was tested, and the “% Inhibition” value was -4% and the Z score was 0.52. `CN1CCN(C(=O)[C@@H]2Cc3ccccc32)CC1` was tested, and the “% Inhibition” value was 29% and the Z score was -4.26. For `Nc1nc2c(c(-c3ccccc3)n1)CN(C(=O)CCc1c[nH]c3ccccc13)C2`, the “% Inhibition” value was -11% and the Z score was 2.12. `COc1ccc2ccccc2c1-c1nc2c(cnn2[C@@H](C)C2CC2)[nH]1` was tested, and the “% Inhibition” value was 10% and the Z score was -1.39. `CC(=O)Nc1nnc(-c2ccsc2)o1` was tested, and the “% Inhibition” value was -7% and the Z score was 1.09. In the case of `COCCN1CCN(c2nc(-c3cccs3)c3c(N)n(-c4cccc(C)c4)nc3n2)CC1`, the “% Inhibition” value is reported as -14% and the Z score is reported as 1.97. `Cc1cccc2sc(N(CCN(C)C)C(=O)c3ccc(S(=O)(=O)N(C)C[C@H]4CCCO4)cc3)nc12` was tested, and the “% Inhibition” value was 19% and the Z score was -2.4. For `CN(C[C@H]1COc2ccccc2O1)C(=O)CN1C(=O)CCNC1=O`, the “% Inhibition” value was 0% and the Z score was 0.06. In the case of `COc1ccc(S(=O)(=O)N2CC(OCc3ccccc3)C2)cc1OC`, the “% Inhibition” value is reported as -14% and the Z score is reported as 2.16. In the case of `COCCN(Cc1c(-c2ccccc2)nn(C)c1Oc1ccc(F)cc1)C[C@@H](O)Cc1ccccc1`, the “% Inhibition” value is reported as -9% and the Z score is reported as 1.34. `Cc1cc(NC(=O)c2ccc3c(c2)C(=O)N(C[C@H]2CCCO2)C3=O)no1` was tested, and the “% Inhibition” value was -8% and the Z score was 1.45. With `COCCN1C(=O)N[C@@H]2CN(C(=O)c3ccnn3C3CCC3)CC[C@@H]21` the “% Inhibition” value was -4% and the Z score was 0.45. In the case of `COc1ccc(N2C(=O)c3cc(C(C)(C)C)nn3C[C@@]2(C)C(=O)NC2CCCCCC2)cc1`, the “% Inhibition” value is reported as -6% and the Z score is reported as 0.92. With `c1ccc2c3c(ccc2c1)[C@@H](NCc1cc[nH]n1)CCCO3` the “% Inhibition” value was -8% and the Z score was 1.51. With `CN1CCC(C)(C(=O)NCCC[C@H]2CCOC2)CC1` the “% Inhibition” value was -11% and the Z score was 2.14. With `COc1cc([C@H]2CC(=O)Nc3cccc4c3c2cn4Cc2cccc(F)c2)ccc1O` the “% Inhibition” value was -6% and the Z score was 1.01. In the case of `CC1(c2cc(-c3ccncc3)c(C#N)c(N)n2)CC1`, the “% Inhibition” value is reported as -1% and the Z score is reported as 0.07. `O=C(Cc1cccc(F)c1)N1CCCN(C(=O)[C@H]2CCCOC2)CC1` was tested, and the “% Inhibition” value was -2% and the Z score was 0.43. With `O=C(CN1C(=O)c2ccccc2C1=O)N1CCCN(C(=O)CN2C(=O)c3ccccc3C2=O)CC1` the “% Inhibition” value was -7% and the Z score was 0.9. In the case of `O=C(NCCC(=O)N1CCC[C@H](c2nc(=O)[nH][nH]2)C1)C1CCCCC1`, the “% Inhibition” value is reported as 30% and the Z score is reported as -3.34. `Cc1nn(CC(=O)N[C@H]2CCN(Cc3cscn3)C[C@@H]2O)cc1Cl` was tested, and the “% Inhibition” value was -20% and the Z score was 3.98. `Cc1nn(-c2nncc(-c3ccc(Cl)cc3)n2)c2c1[C@@H](c1cc(F)ccc1F)CC(=O)N2` was tested, and the “% Inhibition” value was 28% and the Z score was -2.32. In the case of `O=C(Nc1ccc(F)cc1)[C@@H]1CC(O)=Nc2c(-c3ccccc3)cnn21`, the “% Inhibition” value is reported as -9% and the Z score is reported as 1.69. `Cc1c(Cl)cccc1N1C(=O)C2C3C=CC(C3=C3CCCCC3)C2C1=O` (stereo not given) was tested, and the “% Inhibition” value was 3% and the Z score was -0.38. In the case of `c1cc([C@H]2CCOC2)ccc1OCc1noc2c1CCCC2`, the “% Inhibition” value is reported as -17% and the Z score is reported as 3. For `O=C(NCC(=O)N1CCN(c2ccc(F)cc2)CC1)OCc1ccccc1`, the “% Inhibition” value was -12% and the Z score was 1.8. In the case of `O=C(O)[C@@H]1CCCN1C(=O)CCN1CCCC1=O`, the “% Inhibition” value is reported as -2% and the Z score is reported as 0.25. In the case of `CN(C)C(=O)c1cn(C2CN(Cc3ccc(F)cc3F)C2)nn1`, the “% Inhibition” value is reported as -12% and the Z score is reported as 2.26. In the case of `CC1CCCNC1CNC(=O)OC(C)(C)C` (stereo not given), the “% Inhibition” value is reported as -5% and the Z score is reported as 0.64. `CCCOc1ccc(Br)cc1C(N)=O` was tested, and the “% Inhibition” value was 34% and the Z score was -3.87. In the case of `CC(C)c1csc(C2CCCN(C3CCOC3=O)C2)n1` (stereo not given), the “% Inhibition” value is reported as -7% and the Z score is reported as 0.69. With `CN1CC2CN(C(=O)NCc3ccc(F)cc3)CC(C1)O2` the “% Inhibition” value was -17% and the Z score was 2.08. For `Cn1ccc(N[C@@H](C(=O)NC2CC2)c2ccccc2)n1`, the “% Inhibition” value was -7% and the Z score was 1.17. For `CC(=O)N[C@H]1CN(C(=O)c2ccoc2C)C[C@@H]1c1ccc(C)cc1`, the “% Inhibition” value was -14% and the Z score was 1.78. `COc1ncccc1C(=O)N1C2CCC1CC(n1ccnn1)C2` (stereo not given) was tested, and the “% Inhibition” value was -9% and the Z score was 1.35. For `Cc1ccc(-c2cnc(C3CC3)o2)cc1S(=O)(=O)Nc1cccc(C)c1C`, the “% Inhibition” value was -2% and the Z score was 0.33. `CCN(C(=O)c1nnn(-c2cccc3cccnc23)c1C)[C@H]1CC(=O)NC1=O` was tested, and the “% Inhibition” value was -9% and the Z score was 1.16. For `Cc1c(F)cccc1-n1nnc(C(=O)NCCc2cccs2)c1C`, the “% Inhibition” value was -3% and the Z score was 0.38. With `O=S(=O)(CCC1CCc2ccccc21)N1CCC2COCC2C1` (stereo not given) the “% Inhibition” value was 35% and the Z score was -3.98. In the case of `CCOC(=O)c1nc2n(c1-c1cccc(C#N)c1)CCCC2`, the “% Inhibition” value is reported as -28% and the Z score is reported as 3.05. For `O=C(COC(=O)CCC1CCCCC1)Nc1ccc2c(c1)OCO2`, the “% Inhibition” value was -8% and the Z score was 1.5. With `CCOc1ccc(CNCCOCCO)cc1Cl` the “% Inhibition” value was -8% and the Z score was 0.89. For `CCCn1nc(C(=O)N(Cc2ccccc2)c2ccccc2)ccc1=O`, the “% Inhibition” value was -13% and the Z score was 1.41. In the case of `C[C@@H](c1nnnn1C)N1CCN(Cc2ccc(Br)cc2)CC1`, the “% Inhibition” value is reported as 33% and the Z score is reported as -3.78. With `CCc1cnc(C)nc1N(C)CC1(CO)CCOCC1` the “% Inhibition” value was 0% and the Z score was -0.05. With `Cc1nc(CC(N)=NOCC(=O)N2CCCc3ccccc32)no1` the “% Inhibition” value was -3% and the Z score was 0.37. With `Cc1ccc2c(c1)Oc1nc3ccccc3nc1O2` the “% Inhibition” value was 3% and the Z score was -0.41. With `COc1ccc(CC(=O)N2CCC3(CC[C@@H]3O)CC2)cc1Cl` the “% Inhibition” value was 36% and the Z score was -4.6. In the case of `OCC1(CNCc2ccc(OC[C@H]3CCCO3)cc2)CCC1`, the “% Inhibition” value is reported as -2% and the Z score is reported as 0.23. With `O=C(Cn1nnc2ccccc21)NCC1CCC1` the “% Inhibition” value was -5% and the Z score was 0.73. `Cc1cc2c(cc1S(=O)(=O)N(C)CC(=O)N1CCC(C)CC1)OCC(=O)N2` was tested, and the “% Inhibition” value was -3% and the Z score was 0.38. For `O=C1COc2cccnc2N1CCCOc1ccc(F)cc1`, the “% Inhibition” value was 1% and the Z score was -0.22. `N#Cc1cccc(Cn2cnc3c2c(=O)n(Cc2ccco2)c(=O)n3-c2ccccc2)c1` was tested, and the “% Inhibition” value was -9% and the Z score was 1.39. With `CC[C@@H](C(=O)NC1CC1)N(c1ccc(OC)cc1)c1nc(C(C)(C)C)cs1` the “% Inhibition” value was 11% and the Z score was -1.07. With `COc1ccc(OC)c(-c2cc(C(=O)NCC3CCN(C(=O)c4ccoc4)CC3)n(C)n2)c1` the “% Inhibition” value was -2% and the Z score was 0.27. With `O=C(c1cccc(=O)[nH]1)N1CC(C(F)(F)F)C1` the “% Inhibition” value was -7% and the Z score was 0.96. With `CC1CCN(C(=O)NCCS(=O)(=O)NC2CC2)CC1` the “% Inhibition” value was -2% and the Z score was 0.33. With `O=C(Cn1ccccc1=O)N[C@H]1CCCCNC1=O` the “% Inhibition” value was -1% and the Z score was 0.18. With `CCNC(=O)N(C)Cc1ccc(OC)c(O)c1` the “% Inhibition” value was -11% and the Z score was 2. In the case of `CCCC[C@@H]1NC(=O)c2ccc(OC)c(c2)OCCCn2cc(nn2)CNC(=O)[C@@H](C)NC1=O`, the “% Inhibition” value is reported as -20% and the Z score is reported as 3.88. For `CCC(C)c1ccc(C(C)NC(=O)CCC(=O)O)cc1` (stereo not given), the “% Inhibition” value was -2% and the Z score was 0.26. `Cc1ccc(CCC(=O)N2CCC[C@@H]2C(=O)O)c(C)c1` was tested, and the “% Inhibition” value was -8% and the Z score was 0.91. `COc1cc(S(=O)(=O)N(CC#N)C2CCCC2)sn1` was tested, and the “% Inhibition” value was -1% and the Z score was 0.12. In the case of `COc1ccc(Nc2c(-c3nc(C(C)C)no3)cnc3nc(C)ccc23)cc1OC`, the “% Inhibition” value is reported as -13% and the Z score is reported as 1.5. In the case of `COc1cc(C(=O)NCCc2ccccc2)c(N(C)S(C)(=O)=O)cc1OC`, the “% Inhibition” value is reported as -5% and the Z score is reported as 0.75. With `COCCN(Cc1c(C)nn(-c2ccccc2)c1Oc1ccc(F)cc1F)C[C@H](O)COCc1ccccc1` the “% Inhibition” value was -6% and the Z score was 0.98. `CO[C@@H](CNC(=O)NCc1ncnn1C(C)(C)C)C(C)C` was tested, and the “% Inhibition” value was 3% and the Z score was -0.56. In the case of `CC(C)n1c(-c2cn(C3CCN(S(C)(=O)=O)CC3)nn2)nc2ccccc21`, the “% Inhibition” value is reported as -14% and the Z score is reported as 2.87. For `CCCNC(=O)[C@H](C)NC(=O)Nc1ccc(C)cc1C`, the “% Inhibition” value was -6% and the Z score was 0.7. In the case of `CCN1CCN(CC#CCOc2c(OC)cccc2OC)CC1`, the “% Inhibition” value is reported as -8% and the Z score is reported as 0.88. `CCN1CCCN(CC(=O)Nc2ccc(NC(C)=O)cc2)[C@@H](C)C1` was tested, and the “% Inhibition” value was -8% and the Z score was 0.83. `Cc1cc(=O)n2nc(C(=O)N3CCCC3)nc2[nH]1` was tested, and the “% Inhibition” value was 26% and the Z score was -2.99. In the case of `CCOc1cccc(CN=C(NC)NC2CC2)c1OC(F)F`, the “% Inhibition” value is reported as 3% and the Z score is reported as -0.43. `COC(=O)N1CC[C@H](Nc2nccc(C(F)(F)F)n2)C1` was tested, and the “% Inhibition” value was -9% and the Z score was 1.09. `Cc1cc(C)cc(NC(=O)Cn2ccc3ccc(-c4nnc(C)o4)cc32)c1` was tested, and the “% Inhibition” value was 2% and the Z score was -0.2.
